This is one part of the list.

Here are results for 29 compounds from the antibiotic and cytotoxicity screens of Wong et al. (2023).

For one experiment, the system named is HSkMC. The experiment can be described thus: cytotoxicity call (relative viability < 0.9). Conditions: 10 µM.
Another experiment relates to HepG2. Briefly: cytotoxicity call (relative viability < 0.9). As to conditions: 10 µM.
In the next experiment the test system is S. aureus RN4220. The experiment can be described thus: growth inhibition call (relative growth <= 0.2). As to conditions: 50 µM.

Turning to `C[C@H](CO)N1C[C@H](C)[C@H](CN(C)C(=O)Cc2ccncc2)Oc2cc(C3=CCCC3)ccc2S1(=O)=O`, the cytotoxicity call in the experiment with HSkMC and in the experiment with HepG2 was “inactive” in each case. Moreover, the growth inhibition call in the experiment on S. aureus RN4220 was “inactive”.

As for `COc1ccc(S(=O)(=O)Nc2cccc3c2O[C@@H](CN(C)Cc2ccc(Cl)c(Cl)c2)[C@@H](C)CN([C@@H](C)CO)C3=O)cc1`, the cytotoxicity call with HSkMC and in the experiment on HepG2 was “inactive” throughout. For the same compound, the growth inhibition call in the experiment with S. aureus RN4220 was “inactive”.

Regarding `C[C@H]1CN([C@@H](C)CO)C(=O)c2cccc(NS(C)(=O)=O)c2O[C@@H]1CN(C)S(=O)(=O)c1ccc(Cl)cc1`, the cytotoxicity call in the experiment with HSkMC and with HepG2 was “inactive” throughout. Besides, the growth inhibition call with S. aureus RN4220 is “inactive”.

`C[C@H]1CN([C@@H](C)CO)C(=O)c2cccc(NS(C)(=O)=O)c2O[C@@H]1CN(C)S(=O)(=O)c1cccs1`: the cytotoxicity call in the experiment with HSkMC and in the experiment on HepG2 was “inactive” throughout. The growth inhibition call in the experiment on S. aureus RN4220 was “inactive”.

In the case of `CC1=C(C(=O)O)N2C(=O)[C@@H](NC(=O)[C@H](N)c3ccccc3)[C@H]2SC1`, the cytotoxicity call in the experiment on HSkMC and in the experiment with HepG2 was “inactive” throughout. The growth inhibition call in the experiment on S. aureus RN4220 is “inactive”.

`C[C@H](CO)N1C[C@H](C)[C@H](CN(C)S(=O)(=O)c2cccs2)Oc2ccc(NS(=O)(=O)c3ccc(F)cc3)cc2CC1=O`: the cytotoxicity call with HSkMC and with HepG2 was “inactive” in each case. The growth inhibition call with S. aureus RN4220 is “inactive”.

Turning to `C[C@H]1CN([C@@H](C)CO)C(=O)c2cccc(NC(=O)c3nc4ccccc4s3)c2O[C@@H]1CN(C)C(=O)Nc1ccc(C(F)(F)F)cc1`, the cytotoxicity call with HSkMC and with HepG2 was “inactive” throughout. The growth inhibition call in the experiment on S. aureus RN4220 was “inactive”.

`C[C@@H]1CN([C@H](C)CO)C(=O)c2cc(NS(=O)(=O)c3ccc(Cl)cc3)ccc2O[C@@H]1CN(C)Cc1ccc(C(F)(F)F)cc1`: the cytotoxicity call with HSkMC and with HepG2 was “active” each time. In the experiment with S. aureus RN4220, the growth inhibition call was “inactive”.

For `COc1ccc2c3c(n(c2c1)C)[C@H](CO)N(CC1CCOCC1)C[C@]13CN(C1)C(=O)c1cccc(c1)F`, the cytotoxicity call in the experiment with HSkMC and in the experiment with HepG2 was “inactive” each time. For the same compound, in the experiment on S. aureus RN4220, the growth inhibition call is “inactive”.

Consider `O=C(Nc1ccn([C@H]2O[C@H](CO)[C@@H](O)[C@@H]2O)c(=O)n1)c1ccccc1`, for which the cytotoxicity call in the experiment on HSkMC and in the experiment on HepG2 was “inactive” in each case. For the same compound, the growth inhibition call in the experiment with S. aureus RN4220 is “inactive”.

On to `CNC[C@H]1OCCCC[C@@H](C)Oc2ccc(NC(=O)CCCN(C)C)cc2C(=O)N([C@H](C)CO)C[C@@H]1C`, for which the cytotoxicity call in the experiment on HSkMC and in the experiment with HepG2 was “inactive” in each case. In addition, the growth inhibition call in the experiment with S. aureus RN4220 is “inactive”.

As to `COc1cc(NS(C)(=O)=O)ccc1Nc1c2ccccc2nc2ccccc12`, the cytotoxicity call with HSkMC was “inactive”. In the experiment on HepG2, the cytotoxicity call is “active”. Besides, the growth inhibition call in the experiment with S. aureus RN4220 was “inactive”.

Regarding `C[C@H]1CN([C@@H](C)CO)C(=O)c2cccc(NC(=O)C3CC3)c2O[C@H]1CN(C)Cc1ccc(-c2ccccc2)cc1`, the cytotoxicity call with HSkMC and in the experiment on HepG2 was “inactive” in each case. The growth inhibition call in the experiment with S. aureus RN4220 was “inactive”.

Consider `C[C@H](CO)N1C[C@H](C)[C@H](CN(C)Cc2ccncc2)Oc2ccc(NS(=O)(=O)c3ccccc3)cc2CC1=O`, for which the cytotoxicity call in the experiment on HSkMC and in the experiment on HepG2 was “inactive” throughout. For the same compound, the growth inhibition call in the experiment with S. aureus RN4220 is “inactive”.

Take `C[C@@H]1CN([C@@H](C)CO)C(=O)c2cc(NC(=O)CCN3CCOCC3)ccc2O[C@H]1CN(C)C(=O)Nc1ccccc1`: the cytotoxicity call in the experiment with HSkMC and with HepG2 was “inactive” each time. In addition, the growth inhibition call with S. aureus RN4220 is “inactive”.

For the compound `CC1(C)C=C(C(=O)N2CCOCC2)C(C)(C)N1`, the cytotoxicity call in the experiment with HSkMC and in the experiment with HepG2 was “inactive” each time. The growth inhibition call in the experiment with S. aureus RN4220 is “inactive”.

Consider `O=C(N[C@H]1CC[C@H](CCNS(=O)(=O)c2ccccc2)O[C@H]1CO)c1cnccn1`, for which the cytotoxicity call with HSkMC and in the experiment with HepG2 was “inactive” throughout. The growth inhibition call in the experiment with S. aureus RN4220 was “inactive”.

Turning to `CC(C)NC(=O)N(C)C[C@H]1Oc2c(NC(=O)C3CCCCC3)cccc2C(=O)N([C@@H](C)CO)C[C@@H]1C`, the cytotoxicity call in the experiment on HSkMC and with HepG2 was “inactive” throughout. For the same compound, the growth inhibition call in the experiment on S. aureus RN4220 is “inactive”.

In the case of `C[C@@H]1CN([C@@H](C)CO)C(=O)CCCn2nncc2CO[C@@H]1CN(C)C(=O)Nc1ccc2c(c1)OCCO2`, the cytotoxicity call in the experiment on HSkMC and in the experiment on HepG2 was “inactive” throughout. The growth inhibition call with S. aureus RN4220 was “inactive”.

Consider `Nc1ncnc2[nH]c(=S)[nH]c12`, for which the cytotoxicity call in the experiment on HSkMC and in the experiment on HepG2 was “inactive” throughout. For the same compound, the growth inhibition call in the experiment with S. aureus RN4220 is “inactive”.

Turning to `C[C@@H]1CN([C@H](C)CO)C(=O)c2cc(NC(=O)CCN3CCOCC3)ccc2O[C@H]1CN(C)Cc1ccncc1`, the cytotoxicity call with HSkMC and with HepG2 was “inactive” throughout. In the experiment on S. aureus RN4220, the growth inhibition call is “inactive”.

In the case of `C[C@@H]1CCCCO[C@@H](CN(C)S(=O)(=O)c2ccc(Cl)cc2)[C@H](C)CN([C@H](C)CO)C(=O)c2cc(NS(=O)(=O)c3ccc(Cl)cc3)ccc2O1`, the cytotoxicity call with HSkMC is “inactive”. Besides, the cytotoxicity call in the experiment on HepG2 is “active”. Also, the growth inhibition call with S. aureus RN4220 was “inactive”.

As for `C[C@@H]1CN([C@@H](C)CO)C(=O)c2cc(Br)cnc2O[C@@H]1CN(C)S(=O)(=O)c1ccccc1`, the cytotoxicity call with HSkMC and in the experiment on HepG2 was “inactive” in each case. The growth inhibition call in the experiment on S. aureus RN4220 is “inactive”.

On to `O=c1[nH]c(=O)n([C@H]2C[C@H](O)[C@@H](CO)O2)cc1C(F)(F)F`, for which the cytotoxicity call in the experiment on HSkMC (human skeletal muscle cells) is “inactive”. In the experiment on HepG2, the cytotoxicity call was “active”. Moreover, the growth inhibition call in the experiment on S. aureus RN4220 was “inactive”.

As for `C[C@@H]1CN([C@H](C)CO)C(=O)c2cc(NC(=O)Nc3ccc(C(F)(F)F)cc3)ccc2O[C@@H](C)CCCCO[C@H]1CN(C)S(=O)(=O)c1cccs1`, the cytotoxicity call with HSkMC and in the experiment on HepG2 was “inactive” each time. Moreover, the growth inhibition call in the experiment with S. aureus RN4220 was “inactive”.

Take `C[C@H](CO)N1C[C@H](C)[C@@H](CN(C)Cc2ccc(C(=O)O)cc2)Oc2ncc(C#CCN(C)C)cc2C1=O`: the cytotoxicity call with HSkMC and in the experiment with HepG2 was “inactive” each time. For the same compound, the growth inhibition call in the experiment on S. aureus RN4220 was “inactive”.

With `C[C@@H]1CN([C@@H](C)CO)C(=O)c2cccc(NC(=O)Nc3ccc(C(F)(F)F)cc3)c2O[C@H]1CN(C)Cc1ccccc1`, the cytotoxicity call in the experiment with HSkMC is “active”. Also, the cytotoxicity call in the experiment with HepG2 is “inactive”. For the same compound, the growth inhibition call in the experiment with S. aureus RN4220 is “inactive”.

As for `O=C(C[C@H]1NCCNC1=O)Nc1ccc2c(c1)OCCO2`, the cytotoxicity call in the experiment with HSkMC and in the experiment on HepG2 was “inactive” throughout. Moreover, the growth inhibition call in the experiment with S. aureus RN4220 is “inactive”.

For the compound `CC(C)=CCC/C(C)=C/C=C/C(C)=C/C=C/C(C)=C/C=C/C=C(C)/C=C/C=C(C)/C=C/C=C(\C)CCC=C(C)C`, the cytotoxicity call in the experiment with HSkMC and in the experiment with HepG2 was “inactive” each time. In addition, the growth inhibition call with S. aureus RN4220 is “inactive”.
